Whole data set: some 33,000 sequences, median “E-score (-0.5 to 0.5)” near -0.054, cut for the highest 2% near 0.35. This is one part of the list.
molecular target: T1, Stb5 (UniProt P38699); assay: PBM E-score (8-mer binding enrichment) (E-score (-0.5 to 0.5)); higher = stronger / more preferred TF binding; most listed sequences are background and not binding sites; conditions: protein concentration: 200 nM; construct: GST-full length
T1 sequence: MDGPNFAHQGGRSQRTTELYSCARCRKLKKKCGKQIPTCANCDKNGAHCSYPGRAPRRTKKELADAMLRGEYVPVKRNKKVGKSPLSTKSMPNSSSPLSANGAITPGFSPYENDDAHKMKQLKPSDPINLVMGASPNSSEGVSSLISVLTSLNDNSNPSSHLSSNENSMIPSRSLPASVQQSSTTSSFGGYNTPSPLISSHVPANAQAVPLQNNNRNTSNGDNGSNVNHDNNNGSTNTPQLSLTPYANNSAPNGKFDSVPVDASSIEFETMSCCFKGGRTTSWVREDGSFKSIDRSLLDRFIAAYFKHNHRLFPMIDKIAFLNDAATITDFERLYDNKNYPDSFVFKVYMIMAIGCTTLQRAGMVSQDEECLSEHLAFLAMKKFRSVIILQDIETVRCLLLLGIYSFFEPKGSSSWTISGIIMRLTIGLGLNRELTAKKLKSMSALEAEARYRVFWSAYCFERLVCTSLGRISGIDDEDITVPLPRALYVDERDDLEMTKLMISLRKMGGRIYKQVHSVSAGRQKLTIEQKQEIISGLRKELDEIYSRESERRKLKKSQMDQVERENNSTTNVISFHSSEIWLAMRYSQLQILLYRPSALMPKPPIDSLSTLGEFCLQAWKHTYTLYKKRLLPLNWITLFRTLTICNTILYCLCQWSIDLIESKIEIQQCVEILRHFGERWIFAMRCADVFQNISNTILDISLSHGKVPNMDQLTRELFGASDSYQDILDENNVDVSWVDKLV
In short: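 The E-score, a modified Wilcoxon-Mann-Whitney statistic, was computed by the Universal PBM Analysis Suite for every ungapped eight-base word pooled with its reverse complement. Scans behind it were normalised with masliner after bound GST-tagged yeast transcription factors were detected with fluorescent anti-GST. The proteins, at about 100-200 nM, had been applied to universal all-10-mer Agilent arrays made double-stranded by primer extension.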

| Sequence | PBM E-score |
| --- | --- |
| CACTCTAG | -0.114 |
| GATCACAC | -0.0915 |
| CGGTTCCA | 0.202 |
| GCTGTCAC | 0.0485 |
| AGGGTTTC | 0.0222 |
| AGAACGGG | 0.242 |
| CTGAAAAA | -0.24 |
| CCTTATTC | -0.0931 |
| ACACCGCC | 0.459 |
| ACAACGTA | -0.0956 |
| AGGGTTAC | -0.0791 |
| CGGCCCCG | 0.112 |
| AAATCAAT | -0.279 |
| GCAGGCAA | -0.0838 |
| CTATCTAA | -0.0722 |
| CGATGCAC | -0.0315 |
| AACAAGAT | -0.0682 |
| CAACCGCG | 0.223 |
| AGTCCAGG | -0.159 |
| AACCATGC | -0.0189 |
| AGTTAAAC | -0.00364 |
| AAAGTCAA | -0.0439 |
| ACGGCCAG | -0.138 |
| GCTCTGAC | -0.244 |
| CCGGAACA | 0.18 |

| Sequence | PBM E-score |
| --- | --- |
| ACCACATG | -0.237 |
| GGCCCAAC | 0.0296 |
| TAAATGAA | -0.0892 |
| ACTTAGGC | 0.0774 |
| ACCCCGTC | 0.381 |
| CTGCCAAC | -0.2 |
| CACCCTAA | -0.22 |
| GCGCTCAA | -0.0162 |
| CATTCTGA | -0.0401 |
| GGATGGAC | -0.0348 |
| ACAGTTCA | -0.458 |
| CGCCTCCA | -0.0168 |
| ATCACTGC | 0.0552 |
| GTCTGTAA | -0.0447 |
| TCACTGGA | -0.0994 |
| GAACGATC | -0.0814 |
| CCTCCCGA | -0.102 |
| CTACCCGC | 0.0976 |
| TATCAGGA | -0.133 |
| ACAGGTAC | 0.00114 |
| CAAACATC | 0.116 |
| AACGCGCC | 0.0791 |
| AAATAGTT | 0.114 |
| CCCATTGC | 0.0345 |
| GCGGACGC | 0.175 |

| Sequence | PBM E-score |
| --- | --- |
| CTCGACTC | -0.274 |
| ACCTACAA | -0.195 |
| ATGGTAAG | -0.0725 |
| GAAATTCC | 0.18 |
| GTGAGTAA | -0.263 |
| GTCCTAAA | 0.16 |
| ACCGGGGG | 0.286 |
| ACGTCGCC | -0.145 |
| ATTAAATC | 0.154 |
| GTATAATA | 0.23 |
| ATTGATTA | -0.011 |
| GTGTACAC | 0.0145 |
| TACAGGCA | -0.103 |
| AGGGCATA | -0.0797 |
| CGTGTTAC | -0.0374 |
| ACGCCGGG | 0.306 |
| AGATCATG | -0.263 |
| ACCCAGCT | -0.0625 |
| AGGTCACC | -0.0781 |
| CAATGTAG | -0.0807 |
| GACGTAGA | -0.0614 |
| AGCCAGAG | -0.22 |
| AATAATAC | 0.0883 |
| CCTGTCTC | -0.275 |
| AAGTGCAC | -0.186 |

| Sequence | PBM E-score |
| --- | --- |
| GCGACTTA | 0.0301 |
| ACACGCTA | -0.00936 |
| CGATAAAG | 0.12 |
| CTCCGTAC | 0.229 |
| AGTCATGA | -0.0606 |
| GCGCGAAC | 0.0921 |
| AGTGGTAG | -0.18 |
| CAAAGTCG | -0.0612 |
| ATTGTGCC | 0.122 |
| ATGGTAGG | -0.151 |
| TCCAACGA | -0.183 |
| ACCGAAAC | 0.24 |
| CTAGATTA | -0.108 |
| CAGTACGA | -0.208 |
| CTTAGGGC | 0.0286 |
| CTACGCCC | -0.0109 |
| CTATAAAC | 0.165 |
| AACGGGAT | 0.322 |
| TAGTTCGA | -0.152 |
| AGTAGGGC | 0.0296 |
| CCACCAGG | -0.171 |
| ACCCTTTG | 0.0498 |
| CGTTTTAC | 0.0966 |
| ATTTGACG | 0.104 |
| GCAACTCC | 0.189 |

| Sequence | PBM E-score |
| --- | --- |
| CCTCCCTC | -0.109 |
| ATCAGATG | -0.115 |
| GAACCCAA | -0.0386 |
| GGATCTCA | -0.0635 |
| AATGCGGC | 0.243 |
| CGTGATAC | -0.0683 |
| GTATGGGA | -0.0832 |
| ACAGAGAC | -0.0571 |
| CGCTAAGC | 0.0898 |
| AGTCATTA | -0.261 |
| AGGACTGA | -0.184 |
| ACACTCGC | -0.0125 |
| GTAGGTCA | -0.0628 |
| CGGTGGTA | 0.441 |
| GCCAATCA | -0.29 |
| GAGGCAGC | -0.266 |
| GAGTTGGA | -0.219 |
| GACATCCA | -0.0118 |
| CATATCGC | 0.18 |
| GGGGGAAC | 0.0385 |
| ACCTGCAC | -0.201 |
| GAAATTGC | -0.0137 |
| GGTTACAC | 0.127 |
| AAACCACG | -0.103 |
| CCCGAGAC | 0.146 |

| Sequence | PBM E-score |
| --- | --- |
| TAGTATAA | 0.181 |
| AAAGCCCT | -0.125 |
| GCGTCCCA | -0.0996 |
| CGTAAGAC | 0.0101 |
| ATCTGGGG | -0.142 |
| TGAAACAA | -0.149 |
| TACGCAGA | -0.163 |
| AACCTCCG | 0.408 |
| GGACAACC | 0.0349 |
| CGAGGCCC | 0.0479 |
| CCCTGAGA | -0.247 |
| CCAACGTA | -0.207 |
| ATCCATGC | 0.00738 |
| GGTTTAGA | 0.0135 |
| AAGATCCG | 0.307 |
| ACTGTGCC | -0.127 |
| CTAACGAC | -0.195 |
| GACTTCTC | -0.163 |
| CATTGTCA | -0.285 |
| CGAAAGCA | -0.0233 |
| AGGTAGAC | 0.0316 |
| ATAGGGTC | -0.0727 |
| CAACGTGG | -0.231 |
| CCAACCCC | 0.0735 |
| ACCATTAC | -0.0699 |

| Sequence | PBM E-score |
| --- | --- |
| TGCACCCA | -0.215 |
| TATATCGA | 0.168 |
| GAGCGGAC | 0.376 |
| ATTCACTA | -0.127 |
| GTGTACCA | -0.12 |
| CCAGGACC | -0.168 |
| CTCGCGTA | -0.172 |
| GATGTGGC | -0.105 |
| CAGTGGCA | -0.265 |
| CAGAATTA | 0.0466 |
| AGGGATGA | -0.0722 |
| CAGCAAGG | -0.369 |
| GAGGAAGA | -0.19 |
| ACAAATGT | 0.035 |
| GTTCCATA | -0.0279 |
| AGCTGCAT | -0.171 |
| CACCTACG | 0.187 |
| ATACTAGA | -0.152 |
| AACGACTG | -0.255 |
| CGCGGGTA | 0.235 |
| TTCCAAAA | -0.118 |
| AAATTTCC | 0.00205 |

From the supplement of paper PMC3334620
